The whole screen tested about 410,000 compounds, of which about 5,000 (1.2%) were called active. Inconclusive results, whose numbers are uncertain, are shown with a selection of clear calls. The call rests on the fitted dose curve; in most records, active means well fitted inhibition curve with a large enough effect; inconclusive means small, poorly fitted or top-dose-only effect; inactive means no such curve, though single readings can be large or run the other way. Potencies of inconclusive entries are doubtful fits and often do not repeat.
Test: qHTS for Inhibitors of TGF-b; further: nearly all actives have a fitted effect of over 65% in size
Conditions: HepG2 CAGA-GFP TGF-b/SMAD3 reporter, GFP fluorescence, 18 h, TGF-beta stimulated, 500 pg/mL final; series mostly up to 46.1 µM
Method in brief: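 Read-out: total well GFP (ex488/em500-530) summed from mean per-cell fluorescence. Cells: HEPG2 CAGA-GFP, 1% FBS DMEM, 18 h at 37 degrees C with 500 pg/mL final TGF-beta. Unstimulated wells served as the full-inhibition control; stimulated DMSO wells = 0%.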
Potency means the concentration at half of the fitted maximal effect; tags describe the fitted curve by direction and shape.

SMILES	Potency
Cc1ccnc2cc(Cl)cc(Cl)c12	inactive
COc1ccc(-c2nc(SCC(=O)NCCc3ccc(OC)c(OC)c3)n[nH]2)cc1	inactive
CCOc1ccc(CCNC(=O)c2cc3c(=O)[nH]c4ccc(C)cc4c3s2)cc1OCC	inconclusive: 35.5 µM [inhibitor, partial curve, poor fit]
CCCCSc1nnc(-c2ccccc2)c2ccccc12	inconclusive: 7.94 µM [inhibitor, partial curve]
O=C(NC1CCCc2ccccc21)c1ccc2c(c1)sc1nc(-c3ccc(F)cc3)cn12 (configuration not stated)	inconclusive: 3.16 µM [inhibitor, partial curve, poor fit]
COc1ccc(Nc2nc(NCCCN3CCOCC3)nc(N)c2[N+](=O)[O-])cc1	inconclusive: 35.5 µM [inhibitor, partial curve, poor fit]
CCCS(=O)(=O)c1c(Nc2ccccc2C)sc(C(=O)c2ccccc2)c1N	inconclusive: 20 µM [inhibitor, single point]
Cc1ccc(NS(=O)(=O)c2cc(Br)cc3c2N(C(=O)C2CC2)CC3)cc1C	inconclusive: 3.98 µM [inhibitor, partial curve, poor fit]
O=c1c(Cl)c(Cl)cnn1Cc1ccc(F)cc1	inconclusive: 28.2 µM [inhibitor, single point]
CSc1cccc(NC(=S)N(CCN(C)C)C(C)c2ccncc2)c1 (configuration not stated)	inconclusive: 20 µM [inhibitor, single point]
O=C(COC(=O)c1cccnc1Cl)Nc1cccc(S(=O)(=O)N2CCCCC2)c1	inactive
CC(C)NCC(O)Cn1c2c(c3ccccc31)CCc1c-2cnn1-c1ccccc1 (configuration not stated)	inconclusive: 22.4 µM [inhibitor, single point]
COc1ccc(N2CCN(c3ncnc4sc(C(=O)NCC5CCCO5)c(C)c34)CC2)cc1 (configuration not stated)	inactive
O=C(CSc1nc2ncc(Cl)cc2[nH]1)Nc1ccccc1-c1ccccc1	inconclusive: 11.2 µM [inhibitor, partial curve]
Cc1nc(Nc2nc3c(c(=O)[nH]2)CCC3)nc2ccccc12	inconclusive: 11.2 µM [inhibitor, partial curve, poor fit]
Cc1ccsc1/C=N/Nc1cccc(C(=O)O)c1	inactive
CC(C)NC(=O)N(C)C[C@H]1Oc2c(NC(=O)C3CCCCC3)cccc2C(=O)N([C@H](C)CO)C[C@@H]1C	inconclusive: 17.8 µM [inhibitor, partial curve, poor fit]
CCc1ccccc1N(C)C(=O)Cn1cnc2sc(C)c(S(=O)(=O)N3CCN(c4ncccn4)CC3)c2c1=O	inactive
CCc1c(C)nc2cc(-c3cc(OC)cc(OC)c3)nn2c1N1CCCC1	inconclusive: 28.2 µM [inhibitor, single point]
COc1cc(OC)nc(C(NC(=O)C2CCN(Cc3c[nH]c4ccccc34)CC2)c2ccc(Cl)cc2)n1 (configuration not stated)	inconclusive: 31.6 µM [inhibitor, single point]
COc1ccc(CNC(=O)[C@]2(C)CCC[C@@]3(C)C4CC[C@@]5(C)C[C@]4(CCC32)CC5=O)cc1 (some centres not stated)	inconclusive: 35.5 µM [inhibitor, single point]

SMILES	Potency
O=C(C1CCCCN1S(=O)(=O)c1ccccc1[N+](=O)[O-])N1CCOCC1 (configuration not stated)	inconclusive: 11.2 µM [inhibitor, partial curve, poor fit]
Cc1nc2ccc(C(=O)Nc3cccc(OCC(=O)N(C)C)c3)cn2c1N(C)CC1CCCCC1	inconclusive: 35.5 µM [inhibitor, single point]
CN(C)/C=N/c1sc2c(c1C#N)CCCC2	inactive
CCN(CC)c1c([N+](=O)[O-])c(=O)n(CC)c2ccccc12	inactive
Cc1cc(F)ccc1S(=O)(=O)N1CCCOC1CNC(=O)C(=O)NCc1cccnc1 (configuration not stated)	inactive
Cc1cccc(NC(=O)CSc2cccc3cccnc23)c1C	inconclusive: 12.6 µM [inhibitor, single point]
C=C(C(=O)c1ccccc1)C(C)CC(=O)c1ccccc1 (configuration not stated)	active: 12.6 µM
C=CCn1c(SCC(=O)Nc2nccs2)nnc1-c1cc2cccc(OC)c2o1	inconclusive: 15.8 µM [inhibitor, partial curve, poor fit]
CCN(CC(=O)Nc1ccccc1OC)C(=O)c1cc(-c2ccccc2)nn1-c1ccccc1	inconclusive: 10 µM [inhibitor, partial curve]
CC(C)c1ccc(NC(=O)CN(C)S(=O)(=O)c2ccc3c(c2)c(=O)n(C)c(=O)n3C)cc1	inactive
CC1=C(C(=O)N(C)C)CC(CC(=O)NCCCN(C)C)C(=O)N1Cc1ccc(F)cc1 (configuration not stated)	inactive
C[C@H](CO)N1C[C@H](C)[C@@H](CN(C)S(=O)(=O)c2ccccc2)Oc2ccc(NC(=O)Nc3ccc(C(F)(F)F)cc3)cc2C1=O	inconclusive: 35.5 µM [inhibitor, single point]
COc1ccccc1C(=O)Nc1cc2c(cc1N1CCOCC1)n(C)c(=O)n2C	inconclusive: 35.5 µM [inhibitor, single point]
CCc1ccc([C@H]2[C@@H]3C(=O)C[C@@H]4C(=O)N(c5ccccc5)C(=O)[C@@H]4[C@@H]3CN2S(=O)(=O)c2ccc(C)cc2)cc1	inactive
COc1ccccc1C(=O)OCC(=O)Nc1cccc(S(=O)(=O)NC2=NCCCCC2)c1	inconclusive: 35.5 µM [inhibitor, partial curve, poor fit]
CN1CCN(CC(=O)Nc2ccc(S(=O)(=O)N(C)C)cc2)CC1	inconclusive: 8.91 µM [inhibitor, partial curve]
CN(C)C(CNc1ncnc2sccc12)c1ccccc1 (configuration not stated)	inactive
CN1C(=O)CC2(C=CC(=O)C=C2OC(=O)c2ccccc2)c2ccccc21 (configuration not stated)	inactive
COc1ccc(Cc2c(C(C)(C)C)nc3ccc(Cl)cn23)c(C)c1	inconclusive: 35.5 µM [inhibitor, single point]
COCCNc1nc(Nc2ccccc2Cl)c2sccc2n1	inconclusive: 5.62 µM [inhibitor, single point]
O=C(COc1ccccc1)OCC(=O)c1ccc(O)cc1O	inactive

— PubChem BioAssay AID588855 (National Center for Advancing Translational Sciences (NCATS), 2011)
